Results are given in words; binding and its absence hold for the method and conditions named. For some assays here: Binding seen in cells or lysates may run through a third protein. Some entries that bind do so weakly or less than the wild type. For some assays here: Tags and fused reporters may be left off the sequences shown.
T1: Myc-tagged full-length wild-type (WT) FOXL2 (human) (UniProt P58012)
T1 sequence: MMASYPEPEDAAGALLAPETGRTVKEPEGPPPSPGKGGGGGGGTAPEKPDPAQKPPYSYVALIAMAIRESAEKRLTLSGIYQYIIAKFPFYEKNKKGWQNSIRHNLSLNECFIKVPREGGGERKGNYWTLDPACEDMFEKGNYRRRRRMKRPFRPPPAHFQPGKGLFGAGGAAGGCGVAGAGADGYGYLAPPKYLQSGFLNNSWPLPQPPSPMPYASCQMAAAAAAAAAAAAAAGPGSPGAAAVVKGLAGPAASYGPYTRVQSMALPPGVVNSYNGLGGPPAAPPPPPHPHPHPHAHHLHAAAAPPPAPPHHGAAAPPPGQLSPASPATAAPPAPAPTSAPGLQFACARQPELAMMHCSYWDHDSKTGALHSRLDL

B1: FH domain of FOXL2 (aa 46–158) (domain or fragment, UniProt P58012 46-158)
chain: PEKPDPAQKPPYSYVALIAMAIRESAEKRLTLSGIYQYIIAKFPFYEKNKKGWQNSIRHNLSLNECFIKVPREGGGERKGNYWTLDPACEDMFEKGNYRRRRRMKRPFRPPPA

What was measured:
[1] = biological target: T1, Myc-tagged full-length wild-type (WT) FOXL2 (human); test: co-IP; 293T cells transfected with Myc-tagged FOXL2 forms (with Flag-XRCC5 or XRCC6 fragments where indicated); IP with anti-Myc, immunoblot
[2] = biological target: FH domain of FOXL2 (aa 46–158) (human) (UniProt P58012); test: SEC-MALS; Superdex 200 10/300 GL in buffer A (20 mM Tris-HCl pH 8.0, 200 mM NaCl), 0.4 ml/min; each protein alone; both purified

Row | Molecule | binding [1] | binding [2]
1 | XRCC5-C (amino acids 551–732), Flag-tagged (from UniProt P13010 551-732) (domain or fragment) | no binding | 
2 | XRCC6-Ku (amino acids 351–500) (from UniProt P12956 351-500) (domain or fragment) | binds | 
3 | XRCC5-Ku (amino acids 241–550), Flag-tagged (from UniProt P13010 241-550) (domain or fragment) | binds | 
4 | XRCC5-N (amino acids 1–240), Flag-tagged (from UniProt P13010 1-240) (domain or fragment) | no binding | 
5 | B1 |  | no binding
